Assay results published in PubChem BioAssay AID485294 (National Center for Advancing Translational Sciences (NCATS), 2010).
The campaign covered roughly 370,000 compounds. About 150 (0.041%) were called active. The shares of active, inactive and inconclusive entries below differ from those in the screen. The call rests on the fitted dose curve; in most records, active means well fitted inhibition curve with a large enough effect; inconclusive means small, poorly fitted or top-dose-only effect; inactive means flat fitted curve, though single readings scatter. No potency is given beside an inconclusive call; the fits are too rough.

The molecules below were run against Beta-lactamase (Escherichia coli (strain K12)) (UniProt P00811) (assay: qHTS Inhibitors of AmpC Beta-Lactamase (assay with detergent)). Settings: AmpC hydrolysis of nitrocefin, absorbance 480 nm, 0.01% Triton; activity change, negative = inhibition: at 114 µM (top of the series).
Procedure, shortened: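 20 mM phosphate pH 7.0 + 0.01% (detergent screen) or 0.0001% Triton X-100; 5.3 nM AmpC reagent; cpd preinc 15 min RT; nitrocefin (800 uM stock) to start; A480 q20 s × 4 min; Activity was normalised to no-enzyme and no-compound control wells.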
Further: nearly all actives have a fitted effect of over 25% in size.
Potency means the concentration at half of the fitted maximal effect; tags describe the fitted curve by direction and shape.
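Wherever activity change, negative = inhibition is given: 0% = no-compound wells and -100% = no-enzyme wells.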

Sequence of UniProt P00811 (P00811 whole entry, looked up): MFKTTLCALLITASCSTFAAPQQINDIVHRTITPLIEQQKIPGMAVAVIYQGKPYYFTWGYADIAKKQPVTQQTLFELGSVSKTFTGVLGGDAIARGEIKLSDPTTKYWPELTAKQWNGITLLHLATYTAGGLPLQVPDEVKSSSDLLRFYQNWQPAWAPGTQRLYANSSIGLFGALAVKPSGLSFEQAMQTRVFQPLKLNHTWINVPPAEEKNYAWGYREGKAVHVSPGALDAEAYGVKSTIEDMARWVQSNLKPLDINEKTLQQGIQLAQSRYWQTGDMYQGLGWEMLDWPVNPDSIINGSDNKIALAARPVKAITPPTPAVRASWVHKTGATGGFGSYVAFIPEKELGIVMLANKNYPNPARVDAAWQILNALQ

Row | SMILES | Potency | activity change, negative = inhibition
1 | CC1C/C(=N\NC(=O)CCc2ccc(S(=O)(=O)N3CCOCC3)cc2)CC(C)(C)C1 (centres undefined) | inconclusive [inhibitor, partial curve, poor fit] | –
2 | Cc1ccc(C)c(NC(=O)Cn2nc(C(F)(F)F)cc2C2CC2)c1 | inconclusive [inhibitor, partial curve, poor fit] | –
3 | CS(=O)(=O)c1ccc2nc(NC(=O)CN3CCN(Cc4ccccc4)CC3)sc2c1 | – | inactive: 2.36%
4 | CC(C)(C)C1CCc2onc(C(=O)Nc3ccc(F)cc3F)c2C1 (centres undefined) | inconclusive [inhibitor, full curve] | –
5 | CC1=Nc2cc(Cl)ccc2Oc2ccccc21 | – | inactive: 10.2%
6 | CC1(C(=O)NC2CCCCC2)CCC(=O)N1Cc1cccnc1 (centres undefined) | inconclusive [inhibitor, full curve, poor fit] | –
7 | O=[N+]([O-])c1ccc(O)c(C=Nc2cccc3ccccc23)c1 | – | inactive: 3.96%
8 | O=C(O)c1cccc(N2C(=O)c3cccc4cccc(c34)C2=O)c1 | – | inactive: -14.1%
9 | CC1CCc2c(sc(NC(=O)CN3CCN(C(=O)c4ccco4)CC3)c2C#N)C1 (centres undefined) | inconclusive [inhibitor, full curve, poor fit] | –
10 | Cc1cccc(C)c1NC(=O)CSc1nnc(Cn2nnc(-c3ccccc3)n2)n1-c1ccccc1 | – | inactive: -1.2%
11 | COc1cccc(NC(=O)CSc2nnc3ccc(-c4ccccn4)nn23)c1 | inconclusive [inhibitor, full curve] | –
12 | C=CCNC(=O)c1ccc(-n2cccc2)cc1 | inconclusive [inhibitor, full curve] | –
13 | CCSc1ccccc1C(=O)N1CCN(c2nc3ccccc3s2)CC1 | – | inactive: -2.87%
14 | COc1cccc(NC(=O)c2oc3ccc(S(=O)(=O)N(C)C4CCCCC4)cc3c2C)c1 | – | inactive: -4.49%
15 | Cc1ccc2nc(-c3ccc(NC(=O)CN4C(=O)NC(C)(c5ccc(OC(F)F)cc5)C4=O)cc3)sc2c1 (centres undefined) | – | inactive: 2.68%
16 | COC(=O)[C@H](CC(C)C)NCc1cccc(CN[C@@H](CC(C)C)C(=O)OC)c1 | – | inactive: -1.35%
17 | CC1(C)OC(C(O)(c2ccccc2)c2ccccc2)[C@@H](C(O)(c2ccccc2)c2ccccc2)O1 (some centres undefined) | inconclusive [inhibitor, partial curve, poor fit] | –
18 | CCCCc1c(CCC)c(=N)c2ccccc2n1C | inconclusive [inhibitor, full curve, poor fit] | –
19 | Brc1ccc(-c2csc(N/N=C/c3ccc4c(c3)OCO4)n2)cc1 | inconclusive [inhibitor, single point] | –
20 | COc1ccccc1CCNC(=O)CNC(=O)c1ccc2ccccc2c1 | – | inactive: -13.8%
21 | CCn1nccc1C(=O)Nc1ccc(S(=O)(=O)NC23CC4CC(CC(C4)C2)C3)cc1 | inconclusive [inhibitor, partial curve] | –
22 | CCCCN1CC(=O)N2[C@H](c3ccc(OC)cc3)[C@@H]3C(=O)N(CC)C(=O)[C@@H]3[C@]2(Cc2ccccc2)C1=O | – | inactive: -5.08%
23 | O=C1OCc2cc(NC(=O)C3CCCO3)ccc21 (centres undefined) | inconclusive [inhibitor, full curve, poor fit] | –

Row | SMILES | Potency | activity change, negative = inhibition
24 | CCOc1ccc(C(=O)N2CC(=O)Nc3ccc(C)cc3C2c2ccc(F)cc2)cc1OCC (centres undefined) | inconclusive [inhibitor, full curve, poor fit] | –
25 | COc1cccc2sc(Nc3nnc(-c4ccc(F)cc4)o3)nc12 | inconclusive [inhibitor, full curve] | –
26 | CS(=O)(=O)CCC(C(=O)OCc1ccc(Br)cc1)N1C(=O)c2ccccc2C1=O (centres undefined) | inconclusive [inhibitor, single point] | –
27 | COc1ccc(N=C2NC(=O)C(CO)(CO)S2)cc1 | inconclusive [inhibitor, partial curve, poor fit] | –
28 | NC(=O)CSc1ncc(-c2ccccc2)[nH]1 | inconclusive [inhibitor, full curve, poor fit] | –
29 | CCOC(=O)c1c(C)n(C)c2ccc(OCCN(C)C)cc12 | – | inactive: 1.13%
30 | O=C(CCNC(=O)c1ccco1)Nc1ccccc1OC(F)F | inconclusive [inhibitor, full curve] | –
31 | COc1cc(C(=O)NCCCN2CCCC2=O)cc(OC)c1OC | inconclusive [inhibitor, full curve, poor fit] | –
32 | CC1CCc2nn(CC(=O)NCCC3=CCCCC3)cc2C1 (centres undefined) | inconclusive [inhibitor, partial curve, poor fit] | –
33 | CCOC(=O)C(C(=O)NCc1cccc(OC)c1)c1ncc(C(F)(F)F)cc1Cl (centres undefined) | – | inactive: -2.69%
34 | Cn1c(=O)oc2cc(S(=O)(=O)NC(CC(=O)O)c3cccc(Br)c3)ccc21 (centres undefined) | – | inactive: 7.61%
35 | Cn1c2c(c(=O)n(C)c1=O)C(c1cc3c(cc1Br)OCO3)CC(=O)N2 (centres undefined) | inconclusive [inhibitor, full curve, poor fit] | –
36 | CC(C)NC(=O)CC(=O)NN=C1CCCCC1 | – | inactive: 1.54%
37 | Cc1c(C(=O)Nc2ccccn2)sc2nc3n(c(=O)c12)CCC3 | – | inactive: -1.47%
38 | O=C(Nc1cccc(-n2cnnn2)c1)C1CCCN(Cc2cccc(C(F)(F)F)c2)C1 (centres undefined) | – | inactive: 1.93%
39 | CNC(=S)N1CCN(C(=O)c2ccco2)CC1 | – | inactive: -0.398%
40 | Cc1nn(C)c(C(=O)N/N=C/c2ccccc2)c1[N+](=O)[O-] | inconclusive [inhibitor, full curve] | –
41 | COc1ccccc1-n1cnc2cc(NCc3ccco3)ccc21 | inconclusive [inhibitor, single point] | –
42 | O=C(NC(=S)NCC1CCCO1)c1ccco1 (centres undefined) | – | inactive: 2.19%
43 | Cc1cc(NC(=O)COC(=O)CNS(=O)(=O)c2ccc(C)c(C)c2)no1 | inconclusive [inhibitor, full curve, poor fit] | –
44 | COc1ccc(S(=O)(=O)N2CCCC2C(=O)Nc2ccc(C(C)=O)cc2)cc1 (centres undefined) | inconclusive [inhibitor, full curve, poor fit] | –
45 | CC(C)[C@@H](C(=O)NC1CC1)N1C(=O)N2CCc3c([nH]c4ccccc34)[C@@]2(C)C1=O | inconclusive [inhibitor, partial curve] | –
46 | Cc1cc(NC(=O)c2ccccc2)ccc1NC(=O)c1ccccc1Cl | inconclusive [inhibitor, full curve, poor fit] | –

Row | SMILES | Potency | activity change, negative = inhibition
47 | O=C(c1ccc(NS(=O)(=O)c2ccccc2)cc1)N1CCN(Cc2ccc3c(c2)OCO3)CC1 | inconclusive [inhibitor, full curve, poor fit] | –
48 | CCOC(=O)CNS(=O)(=O)c1c(C)noc1C | inconclusive [inhibitor, full curve, poor fit] | –
49 | CCCN1CCN(CCCNC(=O)c2ccc(NC(=O)C3=C(C)OCCS3)cc2)CC1 | – | inactive: -6.03%
50 | O=C(Nc1ccc(-c2nc3cc(Cl)ccc3o2)cc1)c1cc(Br)ccc1Cl | – | inactive: 6.07%
51 | CC(=O)N/N=c1\sc2ccccc2n1C | inconclusive [inhibitor, full curve, poor fit] | –
52 | [N-]=[N+]=CC(=O)C(c1ccccc1)(c1ccccc1)c1ccccc1 | – | inactive: -3.98%
53 | O=C(O)c1cc(-c2cccs2)nc2cc3c(cc12)OCCO3 | inconclusive [inhibitor, full curve, poor fit] | –
54 | COc1ccc(C(=O)NCC(=O)OCc2ccc(Br)cc2)cc1 | inconclusive [inhibitor, full curve] | –
55 | CC(C)NC(=O)CN1CCC(O)(c2ccccc2)CC1 | inconclusive [inhibitor, full curve, poor fit] | –
56 | Cc1ccc(CSc2nc(N)cc(N)n2)cc1 | inconclusive [inhibitor, full curve] | –
57 | CCOC(=O)c1cc(-c2ccccc2)n(CCCC(=O)Nc2ccc(C)c(Cl)c2)c1C | – | inactive: 10.5%
58 | CC1CCN(c2ccc(C(=O)NCCc3ccccc3)cn2)CC1 | inconclusive [inhibitor, full curve, poor fit] | –
59 | COCC(C)n1c(C)cc(C(=O)COC(=O)c2nc3nc(C)cc(C)n3n2)c1C (centres undefined) | inconclusive [inhibitor, partial curve, poor fit] | –
60 | COc1coc(C(O)CN)cc1=O (centres undefined) | inconclusive [inhibitor, partial curve] | –
61 | O=C(Nc1cc(Sc2ccccn2)cc([N+](=O)[O-])c1)c1cccc(F)c1 | – | inactive: 0.174%
62 | CS(=O)(=O)N(CC(=O)O)c1ccc(C23CC4CC(CC(C4)C2)C3)cc1 | inconclusive [inhibitor, full curve, poor fit] | –
63 | Cc1ccc(C)c(NC(=O)COC(=O)CCC(=O)c2cccs2)c1 | inconclusive [inhibitor, full curve, poor fit] | –
64 | CCn1c(SCC(=O)Nc2nnc(C)s2)nc2c(c1=O)SC(C)C2 (centres undefined) | inconclusive [inhibitor, full curve, poor fit] | –
65 | O=C(N/N=C/c1ccccc1)C1CCCN1C(=O)c1cc([N+](=O)[O-])cc([N+](=O)[O-])c1 (centres undefined) | inconclusive [inhibitor, partial curve] | –
66 | CC(C)(C)NC(=O)c1cccc(NC(=O)c2ccco2)c1 | inconclusive [inhibitor, single point] | –
67 | COc1ccc2nc(/N=C/c3c(C)[nH]n(-c4ccc(C)cc4C)c3=O)sc2c1 | inconclusive [inhibitor, full curve] | –
68 | COc1ccc(S(=O)(=O)N2CCN(c3ncccn3)CC2)cc1OC | inconclusive [inhibitor, single point] | –
69 | COc1cccc(C(=O)Nc2ccc(NC(=O)c3ccco3)c(Cl)c2)c1 | inconclusive [inhibitor, partial curve, poor fit] | –
